Some of the results follow.
B1: PhoQ; a variant is named by its letters at X, in order, P23837 (parent)
chain: MKKLLRLFFPLSLRVRFLLATAAVVLVLSLAYGMVALIGYSVSFDKTTFRLLRGESNLFYTLAKWENNKLHVELPENIDKQSPTMTLIYDENGQLLWAQRDVPWLMKMIQPDWLKSNGFHEIEADVNDTSLLLSGDHSIQQQLQEVREDDDDAEMTHSVAVNVYPATSRMPKLTIVVVDTIPVELKSSYMVWSWFIYVLSANLLLVIPLLWVAAWWSLRPIEALAKEVRELEEHNRELLNPATTRELTSLVRNLNRLLKSERERYDKYRTTLTDLTHSLKTPLXXLQXXLRSLRSEKMSVSDAEPVMLEQISRISQQIGYYLHRASMRGGTLLSRELHPVAPLLDNLTSALNKVYQRKGVNISLDISPEISFVGEQNDFVEVMGNVLDNACKYCLEFVEISARQTDEHLYIVVEDDGPGIPLSKREVIFDRGQRVDTLRPGQGVGLAVAREITEQYEGKIVAGESMLGGARMEVIFGRQHSAPKDE

Variants of: B1
Test: enrichment ratio after two sorts for PhoP signalling (ratio (wild type AVST 3.29)); higher = more functional
Conditions: with PhoP (E. coli)
DIII gave an enrichment ratio of at most 0.25. NEQT was tested, and the enrichment ratio was at most 0.25. For VLPH, the enrichment ratio was at most 0.25. Variant QGII has an enrichment ratio of at most 0.25. TTRV gave an enrichment ratio of at most 0.25. Work on MCEF yielded an enrichment ratio of at most 0.25. Work on RKSE yielded an enrichment ratio of at most 0.25. Variant KDIC has an enrichment ratio of at most 0.25. Work on ASWT yielded an enrichment ratio of at most 0.25. For WWIL, the enrichment ratio was at most 0.25. For PNFE, the enrichment ratio was at most 0.25. With MRHW the enrichment ratio was at most 0.25. With NRLG the enrichment ratio was at most 0.25. PKAA showed an enrichment ratio of at most 0.25. LWML was tested, and the enrichment ratio was at most 0.25. With GLMI the enrichment ratio was 2.79. Work on QPYV yielded an enrichment ratio of at most 0.25. QLSY gave an enrichment ratio of at most 0.25. SNWM showed an enrichment ratio of at most 0.25. Variant QFTV has an enrichment ratio of at most 0.25. With KRSH the enrichment ratio was at most 0.25. SKFM was tested, and the enrichment ratio was 1.42. VYID was tested, and the enrichment ratio was at most 0.25. For LVHC, the enrichment ratio was 15. KRFH showed an enrichment ratio of at most 0.25. In the case of EVLE, the enrichment ratio is reported as at most 0.25. For YCPH, the enrichment ratio was at most 0.25. Work on RMPY yielded an enrichment ratio of at most 0.25. Work on MESG yielded an enrichment ratio of 15.7. For WHDR, the enrichment ratio was at most 0.25. For QGSF, the enrichment ratio was 1.82. PGPC was tested, and the enrichment ratio was at most 0.25. For GIAI, the enrichment ratio was 6.79. Work on ICFS yielded an enrichment ratio of at most 0.25. Work on VKDN yielded an enrichment ratio of at most 0.25. Variant LNLK has an enrichment ratio of at most 0.25. ERFR was tested, and the enrichment ratio was at most 0.25. For QVDK, the enrichment ratio was at most 0.25. VVGH showed an enrichment ratio of at most 0.25. VTIF showed an enrichment ratio of at most 0.25. Work on EASV yielded an enrichment ratio of at most 0.25. In the case of MHGV, the enrichment ratio is reported as at most 0.25. For PSGI, the enrichment ratio was at most 0.25. Work on DCIT yielded an enrichment ratio of at most 0.25. For YKPT, the enrichment ratio was at most 0.25. LKRT was tested, and the enrichment ratio was 0.317. With PVTW the enrichment ratio was at most 0.25. WQYI gave an enrichment ratio of at most 0.25. With FCGM the enrichment ratio was at most 0.25. ECSI showed an enrichment ratio of at most 0.25. Work on AKVV yielded an enrichment ratio of 11. CTIF gave an enrichment ratio of at most 0.25. QAIH was tested, and the enrichment ratio was at most 0.25. LQHY was tested, and the enrichment ratio was at most 0.25. With SNRD the enrichment ratio was at most 0.25. HIPL was tested, and the enrichment ratio was at most 0.25. RPTH gave an enrichment ratio of at most 0.25. In the case of RFCG, the enrichment ratio is reported as at most 0.25. IDRD gave an enrichment ratio of at most 0.25. For WMRS, the enrichment ratio was at most 0.25. For QHER, the enrichment ratio was at most 0.25. For RLYH, the enrichment ratio was at most 0.25. Variant YSPL has an enrichment ratio of at most 0.25. Variant ETAD has an enrichment ratio of at most 0.25. With KLIA the enrichment ratio was at most 0.25. HEMY showed an enrichment ratio of at most 0.25. In the case of ADGH, the enrichment ratio is reported as at most 0.25. With PHSV the enrichment ratio was at most 0.25. RSCY was tested, and the enrichment ratio was at most 0.25. In the case of YSKL, the enrichment ratio is reported as at most 0.25. With RGLE the enrichment ratio was at most 0.25. Variant SYMA has an enrichment ratio of at most 0.25. QCSV showed an enrichment ratio of at most 0.25. In the case of NLAC, the enrichment ratio is reported as at most 0.25. In the case of NNTK, the enrichment ratio is reported as at most 0.25. SLGI was tested, and the enrichment ratio was 3.99. With ACVC the enrichment ratio was 1.02. RHMK showed an enrichment ratio of at most 0.25. In the case of GNIR, the enrichment ratio is reported as at most 0.25. Variant QTDP has an enrichment ratio of at most 0.25. FQTW showed an enrichment ratio of at most 0.25. DWYP was tested, and the enrichment ratio was at most 0.25. RHNM was tested, and the enrichment ratio was at most 0.25. Variant MLID has an enrichment ratio of at most 0.25. LLVF was tested, and the enrichment ratio was at most 0.25. In the case of TPAV, the enrichment ratio is reported as at most 0.25. FFHC gave an enrichment ratio of at most 0.25. NDNA showed an enrichment ratio of at most 0.25. Work on TIQS yielded an enrichment ratio of 8.68. TSLD was tested, and the enrichment ratio was 8.58. With TEQW the enrichment ratio was at most 0.25. Variant RKQF has an enrichment ratio of at most 0.25. Work on SCSN yielded an enrichment ratio of 12.3. In the case of PMPH, the enrichment ratio is reported as at most 0.25. CGWP was tested, and the enrichment ratio was at most 0.25. FHYA showed an enrichment ratio of at most 0.25. Variant RHPA has an enrichment ratio of at most 0.25. With TCAS the enrichment ratio was 12.2. Variant IAEI has an enrichment ratio of at most 0.25. Variant SFTA has an enrichment ratio of 0.401. Variant HAAK has an enrichment ratio of at most 0.25. With LVLR the enrichment ratio was at most 0.25. In the case of EYYF, the enrichment ratio is reported as at most 0.25. MQQA was tested, and the enrichment ratio was at most 0.25. Variant VIVV has an enrichment ratio of at most 0.25. With FDVM the enrichment ratio was at most 0.25. In the case of KHAS, the enrichment ratio is reported as at most 0.25. For HLSQ, the enrichment ratio was at most 0.25. Work on YTAR yielded an enrichment ratio of at most 0.25. VPRI showed an enrichment ratio of at most 0.25. SDVT was tested, and the enrichment ratio was 1.53. In the case of FFFQ, the enrichment ratio is reported as at most 0.25. ETSI showed an enrichment ratio of at most 0.25. For MDFH, the enrichment ratio was at most 0.25. For EPGS, the enrichment ratio was at most 0.25. With FMKG the enrichment ratio was at most 0.25. ELDH was tested, and the enrichment ratio was at most 0.25. Variant VTRY has an enrichment ratio of at most 0.25. GTAY showed an enrichment ratio of at most 0.25. With EAPH the enrichment ratio was at most 0.25. SFHA was tested, and the enrichment ratio was at most 0.25. LHRQ was tested, and the enrichment ratio was at most 0.25. LLPE showed an enrichment ratio of at most 0.25. For NPFS, the enrichment ratio was at most 0.25. NSYL showed an enrichment ratio of at most 0.25. In the case of IIAH, the enrichment ratio is reported as at most 0.25. In the case of CSLS, the enrichment ratio is reported as 21.9. With VFDQ the enrichment ratio was at most 0.25. TAGM gave an enrichment ratio of 13.2. VSAW gave an enrichment ratio of at most 0.25. Work on EDLC yielded an enrichment ratio of at most 0.25. Variant FSIT has an enrichment ratio of at most 0.25. PFCW showed an enrichment ratio of at most 0.25. Variant TFMY has an enrichment ratio of at most 0.25. For DIPG, the enrichment ratio was at most 0.25. In the case of IDMV, the enrichment ratio is reported as at most 0.25. ICFQ was tested, and the enrichment ratio was at most 0.25. Variant DGMK has an enrichment ratio of at most 0.25. KYYG showed an enrichment ratio of at most 0.25. Work on VWNM yielded an enrichment ratio of at most 0.25. Variant VSEE has an enrichment ratio of at most 0.25. Variant MNEA has an enrichment ratio of at most 0.25. QAVL showed an enrichment ratio of at most 0.25. Variant MHFP has an enrichment ratio of at most 0.25. For GHIR, the enrichment ratio was at most 0.25. In the case of CLSM, the enrichment ratio is reported as 22.7. In the case of DAYD, the enrichment ratio is reported as at most 0.25. Work on QALG yielded an enrichment ratio of 1.89. For GDTQ, the enrichment ratio was at most 0.25. EFRM was tested, and the enrichment ratio was at most 0.25. For PVST, the enrichment ratio was at most 0.25. Variant PINW has an enrichment ratio of at most 0.25. GVSM showed an enrichment ratio of 0.841.

— a collection of fitness landscapes (doi:10.1126/science.1257360)
